# Data from PubChem BioAssay AID760 (NMMLSC, 2007).
# Hit rate of the full screen: of about 190,000 compounds, about 360 (0.19%) were called active. Inconclusive results, whose numbers are uncertain, are shown with a selection of clear calls.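 Rule for the calls: active = GTP binding activity at least 20 points away from 100%, either lowered or raised; inconclusive = signal likely due to the compound's own green fluorescence; inactive = the rest.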
# Target: Ras-related protein Rab-2A (Canis lupus familiaris) (UniProt P61105)
# Assay: Rab2 wt fluorescent GTP binding changes, either direction – biochemical, dog, bead-based flow cytometry, multiplex, primary screen (AID 760);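 note: 0% = beads with excess unlabeled GTP and 100% = no-compound control corrected for plate trend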
# Conditions: GST-Rab2 wt beads, Bodipy-GTP binding, at 10 µM
row,Structure (SMILES),GTP binding activity
1,CC1=C/C(=N\Nc2ccccc2[N+](=O)[O-])CC(C)(C)C1,inactive: 95%
2,Cc1cc(N2CCOCC2)n2cc(-c3ccccc3)nc2n1,inconclusive: 91%
3,COc1ccc(C(=O)NNC(=O)c2ccc(S(=O)(=O)N3CCCCC3)cc2)cc1,inactive: 99%
4,O=C(NCCCN1CCCCCC1)c1ccc(N2CCCC2=O)cc1,inconclusive: 103%
5,N#C/C(=N\Nc1ccccc1[N+](=O)[O-])C(=N)N1CCCCC1,inconclusive: 97%
6,Cc1c(Cl)cn2c(=O)cc(CN(C)Cc3nc4ccccc4c(=O)[nH]3)nc2c1Cl,inactive: 95%
7,Cc1cc(C)n(C(=O)CNC(=O)c2ccc3c(c2)OCCO3)n1,active: 32%
8,O=C(Nc1sc2c(c1C(=O)O)CCCCC2)c1ccccc1,inactive: 81%
9,COC(=O)CSc1nc2cc(Cl)ccc2c(=O)n1C1CCCC1,inactive: 80%
10,S=C(c1ccc2c(c1)OCO2)N1CCCCC1,inconclusive: 107%
11,O=C(Nc1cccc2ccccc12)N1CCN(Cc2ccccc2)CC1,inconclusive: 91%
12,Cc1cc(C(=O)COC(=O)c2nc3nccc(C)n3n2)c(C)n1CC1CCCO1 (configuration not stated),inconclusive: 92%
13,Cc1nc(Cl)c2c(n1)NC1=C(O2)C(=O)CCC1,inactive: 94%
14,CCOc1ccc2c(c1)c(N=Nc1cccc(C(=O)O)c1)c(O)n2C,inactive: 95%
15,C=CCC1(NCc2ccco2)CCN(CC)CC1,inactive: 99%
16,COCCOC(=O)C1=C(C)OC(N)=C(C#N)C1c1cc2cccc(C)c2nc1Cl (configuration not stated),inconclusive: 92%
17,S=C(NC1CCCCC1)N1CCN(Cc2ccccc2Cl)CC1,inactive: 95%
18,C=CCn1c(CNc2ccc(C)cc2)nnc1SCC(=O)N/N=C/c1ccc(O)cc1O,inconclusive: 86%
19,C=C(C)COc1ccc(-c2nc(N)nc(C)c2-c2ccc(OC)cc2)c(O)c1,inconclusive: 82%
20,COC(=O)c1ccc(CN2C(=O)NC3(CCC(C)CC3)C2=O)cc1 (configuration not stated),inactive: 96%
21,O=S(=O)(Nc1nnc(-c2ccccc2)s1)c1ccc(Cl)cc1,inconclusive: 89%
22,CC(NS(=O)(=O)c1ccccc1)C(=O)NCCc1ccccn1 (configuration not stated),inconclusive: 95%
23,CC(=O)C(Sc1nccc(-c2cccs2)n1)C(C)=O,inconclusive: 93%
24,O=C(Cc1ncc(C(F)(F)F)cc1Cl)NCc1ccco1,inconclusive: 90%
25,O=C(Nc1cccnc1)c1ccc2nc(-c3ccccc3)c(-c3ccccc3)nc2c1,inconclusive: 95%

row,Structure (SMILES),GTP binding activity
1,Cc1ccccc1Nc1nn2c(=O)c3ccccc3nc2s1,inconclusive: 80%
2,CC(C)c1ccc(OCC(O)CN2CCN(c3ccccc3)CC2)cc1 (configuration not stated),inconclusive: 106%
3,CCOC(=O)c1c(-c2ccc(C)o2)csc1NC(=O)CSc1nncs1,inconclusive: 106%
4,CC(OC(=O)c1ccc2c(=O)n3c(nc2c1)CCCCC3)C(=O)Nc1ccc(Cl)cn1 (configuration not stated),inconclusive: 106%
5,S=C(NCc1ccc2c(c1)OCO2)NCc1ccco1,inactive: 101%
6,CC1CC(C)(C)NC(=S)N1CCCC(=O)Nc1ccc(F)cc1 (configuration not stated),inactive: 94%
7,CN(C)/C=C/C1=CC(=O)CC(C)(C)C1,inconclusive: 90%
8,c1ccc(-c2cc(-c3nn4c(-c5ccco5)nnc4s3)c3ccccc3n2)cc1,inconclusive: 82%
9,OC(c1ccc(OCc2ccccc2)cc1)c1nnc(-c2ccccc2)o1 (configuration not stated),inactive: 81%
10,O=C1N=C2SCCN2/C1=C\c1ccccc1Cl,inactive: 101%
11,O=c1c2[nH]c3ccccc3c2ncn1CCCn1ccnc1,inconclusive: 95%
12,CNCc1ccccc1Sc1cc(O)ccc1O,inconclusive: 98%
13,O=C(Cc1ccccc1)c1c[nH]c(C(=O)NC2CCCC2)c1,inactive: 99%
14,CCCCC(CC(O)COCCC)C(=O)NN (configuration not stated),inconclusive: 96%
15,COc1ccccc1CNC(=S)NC1CCCC1,inactive: 97%
16,CC(C)(C)NC(=O)NC(=O)CSc1cccc(C(F)(F)F)c1,inconclusive: 93%
17,CN1/C(=C/C(=S)NC(=O)C2(C)CC2(Cl)Cl)C(C)(C)c2ccccc21 (configuration not stated),inconclusive: 103%
18,Cc1cc(-c2ccc3ccccc3c2)n2ncnc2n1,inactive: 94%
19,CCOc1ccccc1-n1nnnc1SCC(=O)Nc1cc(C)on1,inconclusive: 105%
20,CCN(CC1COc2ccccc2O1)S(=O)(=O)c1ccc(C)cc1 (configuration not stated),inactive: 100%
21,Cc1nn(C)c(C(=O)NNC(=S)NC2CCCCC2)c1Cl,inconclusive: 97%
22,O=C(NNC(=O)C1CCN(S(=O)(=O)c2ccc(Cl)cc2)CC1)c1ccc(Cl)cc1,inconclusive: 104%
23,O=S(=O)(NCc1ccccn1)c1ccccc1,inconclusive: 102%
24,O=C(Nc1cccc2nsnc12)c1ccc(-c2ccc(Br)cc2)o1,inconclusive: 92%
25,COCCCNc1nc(=S)[nH]c2cc(OC)c(OC)cc12,inconclusive: 60%

row,Structure (SMILES),GTP binding activity
1,Cc1cc(NC(=O)c2cccc(C(=O)Nc3cc(C)on3)n2)no1,inactive: 80%
2,O=C(Nc1cccc(S(=O)(=O)N2CCCC2)c1)c1cc(-c2ccccn2)nc2ccccc12,inactive: 97%
3,O=C(NCc1ccco1)C1CC(=O)N(c2ccc(O)cc2)C1 (configuration not stated),inconclusive: 95%
4,Cc1ccc(NC(=O)CNS(=O)(=O)c2cccs2)cc1F,inconclusive: 98%
5,CCOC(=O)CN=C(NS(=O)(=O)c1ccc(Cl)cc1)c1ccccc1,inactive: 97%
6,COC(=O)c1ccccc1NC(=O)c1cc2ncc(Br)cn2n1,inconclusive: 87%
7,CN(/N=C/c1ccncc1)C1=NS(=O)(=O)c2ccccc21,inconclusive: 64%
8,Fc1ccc(/C=C\c2nccc3c2[nH]c2ccccc23)cc1,inconclusive: 93%
9,CC(C)NC(=O)Cn1cc(C(=O)COc2ccccc2)c2ccccc21,inactive: 97%
10,COc1ccc(CCNC(=S)NCc2ccc(Cl)c(Cl)c2)cc1OC,inconclusive: 90%
11,Cc1cc(C)c2c(N)c3cccc(C)c3nc2n1,inconclusive: 95%
12,O=C1c2ccccc2-c2nc3ccccc3nc21,inconclusive: 89%
13,Cc1nn(-c2ccccc2)c(Cl)c1C(=O)Nc1c(C)n(C)n(-c2ccccc2)c1=O,inconclusive: 94%
14,Cc1ccc(-n2c(SCC(=O)N3CCCc4ccccc43)nnc2-c2cccnc2)c(C)c1,inconclusive: 117%
15,COc1cc2nc(C3CCC3)n(NC(=O)COc3ccccc3)c(=O)c2cc1OC,inconclusive: 91%
16,O=C(Cn1cnnn1)Nc1cccc(S(=O)(=O)N2CCCCC2)c1,inconclusive: 134%
17,COC(=O)c1c(NC(=O)C2C3C=CC(CC3)C2C(=O)O)sc(C)c1C (configuration not stated),inconclusive: 87%
18,COc1cccc(/C=N/Nc2ncnc3c2ncn3Cc2ccccc2)c1O,inconclusive: 79%
19,COc1cc(OC)c(C(=O)OCC(=O)NCCc2ccccc2)cc1OC,inactive: 96%
20,COc1ccc(C(=O)N2CCCC(CCC(=O)NCc3ccc(F)c(F)c3)C2)o1 (configuration not stated),inconclusive: 111%
21,CCOC(=O)CSc1nc2ccccc2n1CC(=O)N(C(C)C)C(C)C,inconclusive: 98%
22,CCOc1ccc2nc(SC3CC(=O)N(c4ccc(OC)cc4)C3=O)sc2c1 (configuration not stated),inactive: 101%
23,Cc1nc2nc(SCC(=O)O)nn2c(C)c1Cc1c(F)cccc1Cl,active: 73%
24,CN(/N=C/C=C/c1ccccc1)C1=NS(=O)(=O)c2ccccc21,active: 72%
25,Cc1ccc(NCc2nnc(SCC(=O)Nc3nnc(C)s3)n2C)cc1,inconclusive: 92%

row,Structure (SMILES),GTP binding activity
1,COc1cc(-c2cc(=O)c3c(O)cc(O)cc3o2)ccc1O,inactive: 83%
2,COc1cc2nc(/C=C/c3cc(OC)c(OC)c(OC)c3)sc2cc1SC,inconclusive: 95%
3,CC1=CC(c2ccc(Cl)cc2)n2nc(NS(=O)(=O)c3ccc(C)cc3)nc2N1 (configuration not stated),inconclusive: 87%
4,N#CC1=C(N)N(c2ccccc2C#N)C2=C(C(=O)CCC2)C1c1ccsc1 (configuration not stated),inconclusive: 108%
5,O=S(=O)(Nc1ccc(Cl)nn1)c1ccccc1,inconclusive: 95%
6,Cc1cc2cc(C(c3nnnn3Cc3ccco3)N3CCc4ccccc43)c(=O)[nH]c2cc1C (configuration not stated),inconclusive: 93%
7,O=C(O)COC(=O)C1C(c2ccccc2)C(C(=O)O)C1c1ccccc1 (configuration not stated),inactive: 101%
8,COc1ccc(C(=S)N2CCCCC2)cc1Br,inconclusive: 93%
9,CC(C)COC(=O)NCCCOC(=O)Nc1ccccc1,inconclusive: 99%
10,COC(=O)c1c(NC(=O)c2cccs2)sc2c1CCCC2,inconclusive: 106%
11,CCOC(=O)c1cc2c(=O)[nH]ccc2nc1C,inconclusive: 88%
12,Cc1ccc(O)c(C(=O)/C=C/c2ccc3c(c2)OCCO3)c1,inactive: 93%
13,COc1ccc(CNc2nn[nH]n2)cc1OC,inconclusive: 101%
14,COc1cccc(C(=O)N2CCN(C3CCC(c4ccccc4)CC3)CC2)c1OC (configuration not stated),inconclusive: 111%
15,C=CCn1c(CSc2nc3ccccc3s2)n[nH]c1=S,inconclusive: 104%
16,COc1cccc(NC(=O)CN(c2ccc3c(c2)OCO3)S(C)(=O)=O)c1,inconclusive: 92%
17,CCCN(Cc1ccccc1)C(=S)Nc1ccc(C(C)=O)cc1,inconclusive: 93%
18,O=C(O)CCCNc1ccc(S(=O)(=O)N2CCCCC2)cc1,inactive: 97%
19,COc1ccc(CNS(=O)(=O)c2cccc(S(=O)(=O)N3CCOCC3)c2)cc1,inactive: 100%
20,COc1ccc(CNCC(=O)Nc2ccccc2-n2cccc2)cc1,inactive: 109%
21,COc1ccc(-n2c(=S)[nH]c3cc(C(=O)Nc4cc(OC)c(OC)c(OC)c4)ccc3c2=O)c(OC)c1,inconclusive: 89%
22,O=C(NCc1ccccn1)C1CC(c2ccc(Cl)c(Cl)c2)=NO1 (configuration not stated),inconclusive: 104%
